Results from the supplement of paper PMC8728848.
Some of the results follow.

Legend:
Assay in all cases: glycan array binding signal (z-score within array); higher = stronger binding
Settings in all cases: glycan notation: IUPAC condensed, linker removed
[1] = biological target: Fuc(a1-2)[GalNAc(a1-3)]Gal(b1-3)GlcNAc(b1-6)GalNAc
Summary of the method: (§1)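 Columns mapping to the same glycan were averaged after glycan names were converted to IUPAC-condensed notation. The data come from 3228 arrays in the Consortium for Functional Glycomics database, limited to those with an available protein sequence. Binding is reported as a within-array Z-score averaged across arrays of one protein sequence and across linkers.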

[2] = biological target: Fuc(a1-2)[GalNAc(a1-3)]Gal(b1-4)Glc
Summary of the method: as §1

[3] = biological target: Fuc(a1-2)[GalNAc(a1-3)]Gal(b1-4)GlcNAc
Summary of the method: as §1

[4] = biological target: Fuc(a1-2)[GalNAc(a1-3)]Gal(b1-4)GlcNAc(b1-2)Man
Summary of the method: as §1

[5] = biological target: Fuc(a1-2)[GalNAc(a1-3)]Gal(b1-4)GlcNAc(b1-2)Man(a1-3)[Fuc(a1-2)[GalNAc(a1-3)]Gal(b1-4)GlcNAc(b1-2)Man(a1-6)]Man(b1-4)GlcNAc(b1-4)GlcNAc
Summary of the method: as §1

[6] = biological target: Fuc(a1-2)[GalNAc(a1-3)]Gal(b1-4)GlcNAc(b1-2)Man(a1-3)[Fuc(a1-2)[GalNAc(a1-3)]Gal(b1-4)GlcNAc(b1-2)Man(a1-6)]Man(b1-4)GlcNAc(b1-4)[Fuc(a1-6)]GlcNAc
Summary of the method: as §1

[7] = biological target: Fuc(a1-2)[GalNAc(a1-3)]Gal(b1-4)GlcNAc(b1-3)Gal(b1-4)GlcNAc
Summary of the method: as §1

[8] = biological target: Fuc(a1-2)[GalNAc(a1-3)]Gal(b1-4)GlcNAc(b1-3)Gal(b1-4)GlcNAc(b1-3)Gal(b1-4)GlcNAc
Summary of the method: as §1

[9] = biological target: Fuc(a1-2)[GalNAc(a1-3)]Gal(b1-4)GlcNAc(b1-3)GalNAc
Summary of the method: as §1

[10] = biological target: Fuc(a1-2)[GalNAc(a1-3)]Gal(b1-4)GlcNAc(b1-3)[Fuc(a1-2)[GalNAc(a1-3)]Gal(b1-4)GlcNAc(b1-6)]GalNAc
Summary of the method: as §1

[11] = biological target: Fuc(a1-2)[GalNAc(a1-3)]Gal(b1-4)GlcNAc(b1-6)GalNAc
Summary of the method: as §1

[12] = biological target: Fuc(a1-2)[GalNAc(a1-3)]Gal(b1-4)[Fuc(a1-3)]GlcNAc
Summary of the method: as §1

[13] = biological target: Fuc(a1-2)[GalNAc(a1-3)]Gal(b1-4)[Fuc(a1-3)]GlcNAc(b1-3)GalNAc
Summary of the method: as §1

[14] = biological target: Fuc(a1-2)[GalNAc(a1-4)]Gal(b1-4)GlcNAc
Summary of the method: as §1

[15] = biological target: Fuc(a1-2)[GalNAc(b1-3)]Gal
Summary of the method: as §1

[16] = biological target: Fuc(a1-3)GlcNAc
Summary of the method: as §1

[17] = biological target: Fuc(a1-3)[Gal(b1-4)]Glc6S
Summary of the method: as §1

[18] = biological target: Fuc(a1-3)[Gal(b1-4)]GlcNAc
Summary of the method: as §1

[19] = biological target: Fuc(a1-3)[Gal(b1-4)]GlcNAc(b1-2)Man
Summary of the method: as §1

[20] = biological target: Fuc(a1-3)[Gal(b1-4)]GlcNAc(b1-2)Man(a1-3)[Fuc(a1-3)[Gal(b1-4)]GlcNAc(b1-2)Man(a1-6)]Man(b1-4)GlcNAc(b1-4)GlcNAc
Summary of the method: as §1

[21] = biological target: Fuc(a1-3)[Gal(b1-4)]GlcNAc(b1-2)Man(a1-3)[Fuc(a1-3)[Gal(b1-4)]GlcNAc(b1-2)Man(a1-6)]Man(b1-4)GlcNAc(b1-4)[Fuc(a1-6)]GlcNAc
Summary of the method: as §1

[22] = biological target: Fuc(a1-3)[Gal(b1-4)]GlcNAc(b1-3)Gal(b1-3)[Fuc(a1-4)]GlcNAc
Summary of the method: as §1

[23] = biological target: Fuc(a1-3)[Gal(b1-4)]GlcNAc(b1-3)Gal(b1-4)[Fuc(a1-3)]GlcNAc
Summary of the method: as §1

[24] = biological target: Fuc(a1-3)[Gal(b1-4)]GlcNAc(b1-3)Gal(b1-4)[Fuc(a1-3)]GlcNAc(b1-3)Gal(b1-4)[Fuc(a1-3)]GlcNAc
Summary of the method: as §1

[25] = biological target: Fuc(a1-3)[Gal(b1-4)]GlcNAc(b1-3)GalNAc
Summary of the method: as §1

[26] = biological target: Fuc(a1-3)[Gal(b1-4)]GlcNAc(b1-6)GalNAc
Summary of the method: as §1

[27] = biological target: Fuc(a1-3)[Gal(b1-4)]GlcNAc(b1-6)[Gal(b1-3)GlcNAc(b1-3)]Gal(b1-4)Glc
Summary of the method: as §1

[28] = biological target: Fuc(a1-3)[Gal(b1-4)]GlcNAc6S
Summary of the method: as §1

[29] = biological target: Fuc(a1-3)[Gal3S(b1-4)]Glc
Summary of the method: as §1

[30] = biological target: Fuc(a1-3)[Gal3S(b1-4)]GlcNAc
Summary of the method: as §1

[31] = biological target: Fuc(a1-3)[Gal3S(b1-4)]GlcNAc6S
Summary of the method: as §1

[32] = biological target: Fuc(a1-3)[GalNAc(b1-4)]GlcNAc
Summary of the method: as §1

[33] = biological target: Fuc(a1-3)[GalNAc(b1-4)]GlcNAc6S
Summary of the method: as §1

[34] = biological target: Fuc(a1-4)GlcNAc
Summary of the method: as §1

[35] = biological target: Fuc(b1-3)GlcNAc
Summary of the method: as §1

[36] = biological target: Gal(a1-2)Gal
Summary of the method: as §1

[37] = biological target: Gal(a1-3)Gal
Summary of the method: as §1

[38] = biological target: Gal(a1-3)Gal(b1-3)GlcNAc
Summary of the method: as §1

[39] = biological target: Gal(a1-3)Gal(b1-3)GlcNAc(b1-2)Man
Summary of the method: as §1

[40] = biological target: Gal(a1-3)Gal(b1-3)GlcNAc(b1-2)Man(a1-3)[Gal(a1-3)Gal(b1-3)GlcNAc(b1-2)Man(a1-6)]Man(b1-4)GlcNAc(b1-4)GlcNAc
Summary of the method: as §1

[41] = biological target: Gal(a1-3)Gal(b1-3)GlcNAc(b1-3)GalNAc
Summary of the method: as §1

[42] = biological target: Gal(a1-3)Gal(b1-3)GlcNAc(b1-6)GalNAc
Summary of the method: as §1

[43] = biological target: Gal(a1-3)Gal(b1-3)[Fuc(a1-4)]GlcNAc(b1-2)Man(a1-3)[Gal(a1-3)Gal(b1-3)[Fuc(a1-4)]GlcNAc(b1-2)Man(a1-6)]Man(b1-4)GlcNAc(b1-4)GlcNAc
Summary of the method: as §1

[44] = biological target: Gal(a1-3)Gal(b1-4)Glc
Summary of the method: as §1

[45] = biological target: Gal(a1-3)Gal(b1-4)GlcNAc
Summary of the method: as §1

B1: Clec18C (Homo sapiens) (protein)
chain: MLHPETSPGRGHLLAVLLALLGTAWAEVWPPQLQEQAPMAGALNRKESFLLLSLHNRLRSWVQPPAADMRRLDWSDSLAQLAQARAALCGTPTPSLASGLWRTLQVGWNMQLLPAGLVSFVEVVSLWFAEGQRYSHAAGECARNATCTHYTQLVWATSSQLGCGRHLCSAGQAAIEAFVCAYSPRGNWEVNGKTIVPYKKGAWCSLCTASVSGCFKAWDHAGGLCEVPRNPCRMSCQNHGRLNISTCHCHCPPGYTGRYCQVRCSLQCVHGRLREEECSCVCDIGYGGAQCATKVHFPFHTCDLRIDGDCFMVSSEADTYYRARMKCQRKGGVLAQIKSQKVQDILAFYLGRLETTNEVIDSDFETRNFWIGLTYKTAKDSFRWATGEHQAFTSFAFGQPDNHGFGNCVELQASAAFNWNNQRCKTRNRYICQFAQEHISRWGPGS
- glycan array binding signal (z-score) [1]: -0.223
- glycan array binding signal (z-score) [2]: -0.557
- glycan array binding signal (z-score) [3]: -0.476
- glycan array binding signal (z-score) [4]: -0.166
- glycan array binding signal (z-score) [5]: -0.427
- glycan array binding signal (z-score) [6]: -0.451
- glycan array binding signal (z-score) [7]: -0.522
- glycan array binding signal (z-score) [8]: -0.308
- glycan array binding signal (z-score) [9]: -0.571
- glycan array binding signal (z-score) [10]: -0.427
- glycan array binding signal (z-score) [11]: -0.11
- glycan array binding signal (z-score) [12]: -0.156
- glycan array binding signal (z-score) [13]: 0.975
- glycan array binding signal (z-score) [14]: 0.446
- glycan array binding signal (z-score) [15]: -0.191
- glycan array binding signal (z-score) [16]: -0.581
- glycan array binding signal (z-score) [17]: -0.305
- glycan array binding signal (z-score) [18]: -0.349
- glycan array binding signal (z-score) [19]: -0.513
- glycan array binding signal (z-score) [20]: 0.293
- glycan array binding signal (z-score) [21]: 0.028
- glycan array binding signal (z-score) [22]: -0.546
- glycan array binding signal (z-score) [23]: -0.261
- glycan array binding signal (z-score) [24]: -0.621
- glycan array binding signal (z-score) [25]: -0.506
- glycan array binding signal (z-score) [26]: 0.062
- glycan array binding signal (z-score) [27]: 0.839
- glycan array binding signal (z-score) [28]: 1.33
- glycan array binding signal (z-score) [29]: 2.58
- glycan array binding signal (z-score) [30]: 0.34
- glycan array binding signal (z-score) [31]: 1.06
- glycan array binding signal (z-score) [32]: -0.121
- glycan array binding signal (z-score) [33]: 0.313
- glycan array binding signal (z-score) [34]: -0.617
- glycan array binding signal (z-score) [35]: -0.605
- glycan array binding signal (z-score) [36]: -0.049
- glycan array binding signal (z-score) [37]: 0.329
- glycan array binding signal (z-score) [38]: 1.01
- glycan array binding signal (z-score) [39]: -0.431
- glycan array binding signal (z-score) [40]: 0.364
- glycan array binding signal (z-score) [41]: -0.314
- glycan array binding signal (z-score) [42]: 0.674
- glycan array binding signal (z-score) [43]: -0.476
- glycan array binding signal (z-score) [44]: 1.37
- glycan array binding signal (z-score) [45]: 2.72
